Measured values reported in PubChem BioAssay AID1508624 (National Center for Advancing Translational Sciences (NCATS), 2021).
Out of some 48,000 compounds screened, about 120 (0.25%) were called active. Not shown: some 4% with an inconclusive outcome. Calls follow the shape of the dose curve; as a rule, active = well fitted activation curve with a large enough effect; inconclusive = small, poorly fitted or top-dose-only effect, or another doubt; inactive = no such curve, though single readings can be large or run the other way. The list shows a part of the results.

test: Primary qHTS for Identification of Small Molecule Activators of Huntingtin-Antisense Promoter Activity; conditions: HEK293 HTT-AS promoter firefly luciferase reporter, 24 h; series mostly up to 57.5 µM; activity change, positive = activation: at the top concentration; also: nearly all actives have a fitted effect of over 55% in size
Method in brief: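 Firefly luciferase readout (Dual-Glo, 10 min RT) after 24 h, 37 °C compound exposure (final up to 57.5 uM) of HEK293 reporter cells cultured 24 h beforehand; PTC124 at 50 uM final as control inhibitor; activity scaled vehicle 0%, zero RLU -100%.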

Structure (SMILES)	activity change, positive = activation
CCC(=O)N1CCc2cc(Br)cc(S(=O)(=O)CCC(=O)N3CCN(c4ccc(OC)cc4)CC3)c21	inactive: 22.3%
CCOc1ccc2oc(=O)cc(CN3CCN(Cc4ccc(F)cc4)CC3)c2c1	inactive: -23.5%
O=C(CCCn1c(=O)c2ccccc2n(CC(=O)Nc2cccc(Cl)c2)c1=O)NCc1ccc2c(c1)OCO2	inactive: -1.36%
CCC(C(=O)Nc1cc(OC)ccc1OC)n1c(=O)c(C(F)(F)F)nc2ccccc21 (centres undefined)	inactive: -0.573%
CCC(=O)Nc1ccccc1-c1nc2ccccc2n(C(C)C(=O)Nc2cccc(Cl)c2C)c1=O (centres undefined)	inactive: -16.3%
COc1cc(NC(=O)CNC(=O)Cn2ccc3ccccc3c2=O)cc(OC)c1OC	inactive: -19.3%
COCCn1c(C)cc(O)c(C(c2ccc(Cl)cc2)N2CCN(c3ccccc3)CC2)c1=O (centres undefined)	inactive: 11%
CN1C(C(=O)c2ccccc2)=C(NC(=O)c2ccccc2Br)c2ccccc2S1(=O)=O	inactive: -5.74%
COc1ccc(NC(=O)Nc2cccc(OCc3cc(=O)n4cccc(C)c4n3)c2)c(OC)c1	inactive: -14.2%
CCCCCSc1nnc2c(n1)OC(CC)Nc1ccc(Br)cc1-2 (centres undefined)	inactive: -25.5%
Cc1nc2ccc(S(=O)(=O)NC(C(=O)N3CCN(c4ccc(Cl)cc4)CC3)C(C)C)cc2s1 (centres undefined)	inactive: -27.8%
O=c1n(Cc2ccc(Cl)cc2)c2ccccc2c2nc(-c3ccccc3)nn12	inactive: -14.1%
CCc1ccc(NC(=O)Cc2csc(COc3cccc(C)c3)n2)cc1	inactive: -8.09%
CCn1c(=O)cc(SCC(=O)NCCc2cccc(C)c2)c2ccccc21	inactive: -0.106%
O=S(=O)(c1ccc2[nH]c3c(c2c1)CCCC3)N1CCN(c2cccc(C(F)(F)F)c2)CC1	inactive: -25.4%
Cc1cc(C)cc(Nc2nc3ccccc3n3cnnc23)c1	inactive: -4.81%
COc1ccc(-c2cc(C(C)=O)c(C)n2CCC(=O)Nc2ccc(C)cc2Cl)cc1	inactive: -33.2%
COc1cc(C2N=C(N)Nc3nc4ccccc4n32)ccc1OCC(=O)O (centres undefined)	inactive: 1.68%
CCN(C(=O)c1cccn(Cc2ccccc2C)c1=O)c1ccccc1	inactive: -3.26%
CCOC(=O)C1CCN(C(=O)Cn2ncc3c4ccccc4n(Cc4ccccc4F)c3c2=O)CC1	inactive: -17.5%

Structure (SMILES)	activity change, positive = activation
CN(C)c1ccc(NC(=O)CN2C(=O)c3ccccc3Sc3ccc(C(=O)N4CCCC4)cc32)cc1	inactive: -27.1%
Cc1ccc(NC(=O)CN2C(=O)CCn3nc(-c4cccn4C)cc32)c(Cl)c1	inactive: -23.4%
Cc1nnc(NC(=O)CSc2nnc3c(n2)[nH]c2ccccc23)s1	inactive: -9.55%
Cc1nn(CCCC(=O)NCc2cccc(Cl)c2)c(=O)c2c1sc1ccccc12	inactive: -2.44%
Cc1cccc(N2CCN(CCCNC(=O)c3sc4ncccc4c3-n3cccc3)CC2C)c1 (centres undefined)	inactive: -28.1%
Cc1cccc(Nc2nc(N[C@@H]3CCCC[C@H]3N)ncc2C(N)=O)c1	inactive: -8.88%
O=C(Cn1c(-c2cccs2)cc2cc(F)ccc21)NCCCN1CCN(c2ccccc2F)CC1	inactive: -40.5%
Cc1ccc(F)cc1NC(=O)c1ccc(Cn2nc(N3CCN(c4ccccc4)CC3)ccc2=O)o1	inactive: -42.7%
O=c1n(Cc2ccc(F)cc2)nc2n1-c1cc(Cl)ccc1OC2	inactive: -9.78%
Cc1ccc(Cc2cnc(NC(=O)C3Cc4ccc(C)cc4C(=O)O3)s2)cc1 (centres undefined)	inactive: -1.18%
COc1ccc(/C=C/C(=O)c2ccc(OC)cc2OC)cc1	inactive: 0.936%
COC(=O)c1cnn(-c2ccc(C(=O)Nc3ccc(OC(F)(F)F)cc3)cc2)c1N	inactive: -37.6%
CCc1ccc(NC(=O)CN2CCSc3ccc(S(=O)(=O)N4CCCC4)cc32)cc1	inactive: -38.7%
COc1ccc(CCNc2nc(-c3ccc(F)cc3)cc(C(F)(F)F)n2)cc1OC	inactive: -27%
COc1ccc(C(CNC(=O)c2cccc([N+](=O)[O-])c2)N2CCOCC2)cc1 (centres undefined)	inactive: -5.07%
CC(C(=O)O)c1ccc(C(=O)c2cccs2)cc1 (centres undefined)	inactive: 1.19%
CCOc1ccc(S(=O)(=O)c2cn(C)c3ccccc3c2=O)cc1	inactive: 8.62%
CC(NC(=O)c1c2c(nc3ccccc13)C(=O)N(C1CCCCC1)C2)c1ccccc1 (centres undefined)	inactive: -37.4%
COc1cc(/C=C/c2nc3cc(Cl)ccc3c(=O)n2-c2cccc(C(F)(F)F)c2)cc(OC)c1OC	inactive: -10.5%
COc1cc2ncnc(Nc3ccc(F)c(Cl)c3)c2cc1OCCCN1CCOCC1	inactive

Structure (SMILES)	activity change, positive = activation
COc1ccc(Cn2c(SCC(=O)Nc3ccc(OC)cc3)nc3ccccc32)cc1	inactive: -30.4%
O=C(COCc1cc(-c2ccco2)on1)Nc1cccc(O)c1	inactive: 5.24%
Cn1c(=O)c(=O)n(C)c2cc(S(=O)(=O)CCC(=O)Nc3cccc(C(F)(F)F)c3)ccc21	inactive: -4.95%
Cc1ccc(-c2nc3c(cnn3-c3ccccc3)c(=O)n2-c2cccc(Cl)c2)cc1	inactive: 5.27% [at 11.5 µM, percent change from vehicle, -100% = no light]
CN(C)S(=O)(=O)c1ccc2c(c1)N(CC(=O)N1CCN(c3cccc(Cl)c3)CC1)CCS2	inactive: 0.459%
COc1cc(OC)c(N(C)C(=O)C2CCCN(c3ncnc4c3nc3n4CCCCC3)C2)cc1Cl (centres undefined)	inactive: -27.1%
COc1cc(NC(=O)Nc2nnc(N3CCCCCC3)s2)cc(OC)c1	inactive: 13.1%
CC1CCCN(Cc2c(O)ccc3c(=O)c(Oc4ccc(C(C)(C)C)cc4)c(C(F)(F)F)oc23)C1 (centres undefined)	inactive: -1.36%
CCOc1ccccc1CNC(=O)c1cnc2c(-c3ccc(OCC)c(OCC)c3)c(C)nn2c1C	inactive: -5.6%
Nc1cccc2c(N)cccc12	inactive: -4.3% [at 116 µM, percent change from vehicle, -100% = no light]
COc1ccc(NC(=O)C2CCN(c3nc4ccccc4nc3C(F)(F)F)CC2)cc1	inactive: 9.49%
COc1ccc(-c2cn3nc(N4CCC(C(=O)Nc5ccc(Cl)cc5C)CC4)sc3n2)cc1	inactive: -8.57%
COc1ccc(-n2nc(C(=O)NCCc3ccc(OC)c(OC)c3)c3c4ccccc4n(C)c3c2=O)cc1Cl	inactive: -7.04%
Cc1oc(-c2ccc(C(=O)NCCc3ccc(Cl)cc3)cc2)nc1CSc1ccccc1	inactive: -9.57%
O=C(Cn1cc(SCc2ccccc2)c2ccccc21)N1CCCCCC1	inactive: 12.9%
Cc1ccc(-c2nc(SCC(=O)N3CCc4ccccc43)c3c(=O)n(C)c(=O)n(C)c3n2)cc1	inactive: -6.69%
Cc1ccc(N2CCN(c3c(CN4CCCC4)c(=O)oc4ccccc34)CC2)c(C)c1	inactive: -11.1%
COCCCNC(=O)c1c(NC(=O)c2cc(=O)c3ccccc3o2)sc2c1CCCC2	inactive: 0%
Cc1ccc(S(=O)(=O)n2nc(C)c(S(=O)(=O)N3CCC(C)CC3)c2C)cc1	inactive: -4.84%
